Assay results from PubChem BioAssay AID504832 (National Center for Advancing Translational Sciences (NCATS), 2011).
“And” between values parts separate entries of the source, which are not always exact repeats. Equal values may be shown once. Out of some 310,000 compounds screened, about 18,000 (5.8%) were called active. The inconclusive results got no clear call from the source; some entries with a clear call stand among them for comparison. Calls come from the whole dose curve; as a rule, active = well fitted inhibition curve with a large enough effect; inconclusive = small, poorly fitted or top-dose-only effect, or another doubt; inactive = no such curve, though single readings can be large or run the other way. No potency is given beside an inconclusive call; the fits are too rough.

Experiment: Primary qHTS for delayed death inhibitors of the malarial parasite plastid, 48 hour incubation
Conditions: P. falciparum luciferase growth in erythrocytes; series mostly up to 28.7 µM
Method in brief: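 Growth was read as firefly luciferase luminescence after a 48 h, 37 C, 5% CO2 exposure of compounds to reporter-bearing P. falciparum cultures (0.1% parasitemia, 2% hematocrit final) in Albumax-supplemented RPMI 1640.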
Potency is the fitted concentration of half-maximal effect; tags give direction and shape of the fitted curve.

| SMILES | Potency |
| --- | --- |
| CCN(CC)C(=O)c1ccc(COc2ccc(Cl)c(C)c2)o1 | inactive |
| COC(=O)Nc1ccc(S(=O)(=O)N2CCCc3ccccc32)cc1 | inconclusive [inhibitor, single point] |
| O=C(NNC1=NS(=O)(=O)c2ccccc21)c1cccc([N+](=O)[O-])c1 | inconclusive [inhibitor, partial curve] |
| CCN1CCN(CCOc2cccc(Cl)c2Cl)CC1 | inconclusive [inhibitor, partial curve, poor fit] |
| COc1ccc(-n2c(SCc3nnc(-c4ccccc4)o3)nnc2-c2ccccc2)cc1 | inconclusive [inhibitor, partial curve, poor fit] |
| CN(C)S(=O)(=O)c1ccc(NC(=O)CSc2ncnc3ccccc23)cc1 | inconclusive [inhibitor, partial curve] |
| CCNC(=O)C1CC(=O)N(Cc2ccc(F)cc2)C(=Nc2ccc(OC)cc2)S1 (stereo not given) | active: 7.38 µM |
| Oc1ccccc1N1CCN(c2ncnc3sc(-c4ccccc4)cc23)CC1 | active: 13.1 µM |
| CCN(CC)C(=O)c1c2c(nc3ccccc13)-c1ccccc1CC2 | active: 7.38 µM |
| C=C(C)C1CC=C(C)/C(=N/NC(=O)COc2cccc(C)c2)C1 (stereo not given) | inconclusive [inhibitor, partial curve, poor fit] |
| COc1ccc(CN2CCN(Cc3ccccc3)C(CCO)C2)cc1OC (stereo not given) | inactive |
| Cc1ccccc1-c1nc(CS(=O)(=O)CC(=O)NCCCN2C(C)CCCC2C)c(C)o1 (stereo not given) | inconclusive [inhibitor, single point] |
| COc1ccccc1N1CCN(C(=O)COc2ccc(S(=O)(=O)NC(C)C)cc2)CC1 | inconclusive [inhibitor, partial curve, poor fit] |
| CCCC(=O)O[C@]1(C(=O)CCl)[C@@H](C)C[C@H]2[C@@H]3CCC4=CC(=O)C=C[C@]4(C)[C@@]3(F)C(=O)C[C@@]21C | active: 1.65 µM |
| CCOC(=O)C1=C(c2ccccc2)NC(=O)NC1c1cc(Cl)c(O)c(OC)c1 (stereo not given) | inactive |
| COc1ccc(CN(C(=S)Nc2ccccc2)C2CC(=O)N(c3ccc(F)cc3)C2=O)cc1 (stereo not given) | inconclusive [inhibitor, single point] |
| CC1=C(C(=O)OC2CCCCC2)C(c2cccs2)n2c(nc3ccccc32)N1 (stereo not given) | inconclusive [inhibitor, single point] |
| CN1CCN(c2ccc(NC(=O)Cc3ccccc3)cc2)CC1 | inactive |
| O=C(Cn1nc2sc3ccccc3n2c(=O)c1=O)c1cccs1 | inactive |
| CCCCn1c(O)c(C(CC)=Nc2ccc(OCC)cc2)c(=O)[nH]c1=O | inconclusive [inhibitor, single point] |
| Cc1ccccc1C(=O)Nc1ccc2c(c1)C(=O)NC2=O | inactive |
| COc1cccc(COC(=O)CCNC(=O)c2ccc(Br)cc2)c1OC | inactive |
| Cc1ccc2c(C)c(C(=O)N(C)Cc3nccn3C)oc2c1C | inactive |
| COc1cc(-n2c(=O)c3ccccc3n(CC(=O)OCc3ccccc3)c2=O)cc(OC)c1OC | inactive |

| SMILES | Potency |
| --- | --- |
| COc1ccc(-n2c(SCc3cccnc3)nc3c(c2=O)SCC3)cc1OC | inconclusive [inhibitor, partial curve, poor fit] |
| CCCC[C@@H]1C[C@H]1[C@@H](NC(=O)c1ccccc1)c1ccccc1C(F)(F)F | inconclusive [inhibitor, single point] |
| Cc1cccc(-c2c3c(=O)n(C)c(=O)n(C)c3cn2C2CCCCC2)c1 | inconclusive [inhibitor, partial curve, poor fit] |
| C#CCOCCOCCOCCNc1nc(N2CCOCC2)nc(N2CCN(C(=O)CCCCCCCCCCNC(=O)[C@@H](CCC(=O)O)n3cc(CCCCCN)nn3)CC2)n1 | active: 14.7 µM |
| CCOc1ccc2ccccc2c1C(=O)N[C@@H]1C(=O)N2[C@@H]1SC(C)(C)[C@@H]2C(=O)O | inconclusive [inhibitor, partial curve] |
| CCN(CC)c1ccc(NC(=O)Nc2ccc(C(C)=O)cc2)cc1 | inconclusive [inhibitor, partial curve, poor fit] |
| Nc1nc(Br)c2c(F)cccc2c1-c1ccc(F)cc1 | inconclusive [inhibitor, single point] |
| Cn1cc(C(C[N+](=O)[O-])c2ccccc2)c2ccccc21 (stereo not given) | inconclusive [inhibitor, partial curve, poor fit] |
| O=C(NCc1cccc(Cl)c1)C1CCC(=O)N(CCN2CCOCC2)C1 (stereo not given) | inconclusive [inhibitor, single point] |
| C=C(C)COc1ccc2c(C)c(CC(=O)OC)c(=O)oc2c1C | inconclusive [inhibitor, single point] |
| CCc1cccc(C)c1N=Cc1c(O)c2ccccc2oc1=O | active: 13.1 µM |
| N#Cc1cnn(-c2ccccc2)c1N | inactive |
| COc1cc2c(cc1OC)C(C)N(C(=O)c1cc3c(s1)-c1ccccc1OC3)CC2 (stereo not given) | inactive |
| CCCCN(CCCC)CCNC(=O)CN1C(=O)CSc2ccc(S(=O)(=O)N3CCCCC3)cc21 | inconclusive [inhibitor, full curve, poor fit] |
| Cc1cc(=O)oc2cc(Oc3ccc([N+](=O)[O-])cc3[N+](=O)[O-])ccc12 | inactive |
| CCCNC(=O)c1ccc(N2CCC3(CC2)CC(c2ccccc2)=NO3)c(N)c1 | inconclusive [inhibitor, partial curve, poor fit] |
| COC(=O)C1CN(C(=O)COc2cc(C)cc(C)c2)c2ccccc2O1 (stereo not given) | inactive |
| Cc1cc(O)c(C2=Nc3ccccc3SC(c3ccc(Cl)cc3)C2)c(=O)o1 (stereo not given) | inactive |
| CC(=O)Nc1cccc(/C(C)=N/NC(=O)c2cccc(S(=O)(=O)N3CCOCC3)c2)c1 | inactive |
| O=C(Nc1ccccc1)N(Cc1ccc(Cl)cc1)CC(O)C(F)(F)F (stereo not given) | active: 14.7 µM |
| O=C(CSc1nnc2ccc(-c3ccncc3)nn12)N1CCCCC1 | inconclusive [inhibitor, partial curve, poor fit] |
| COc1ccccc1NC(=O)N1CCN(c2ccnc3cc(Cl)ccc23)CC1 | active: 2.08 µM |
| Cc1cc2ccccn2c1C(=O)c1nc(NCc2ccccc2)ncc1Cl | inconclusive [inhibitor, single point] |
| CCc1nc2sc3c(c2c(=O)o1)CCCC3 | inactive |

| SMILES | Potency |
| --- | --- |
| COc1ccc(CCN2C(=O)c3cccnc3C2=O)cc1OC | inactive |
| COc1ccc(-c2noc(N3CCCC(C(=O)Nc4ccc(F)cc4F)C3)n2)cc1 (stereo not given) | inactive |
| CCOC(=O)c1c(NC(=O)N/N=C/c2ccccc2OCC)sc(C(C)=O)c1C | inconclusive [inhibitor, single point] |
| Cc1cc(NC(=O)CCOc2ccccc2)no1 | inactive |
| CNC(=S)/N=C/NOCc1c(Cl)cccc1Cl | inconclusive [inhibitor, single point] |
| CC(C)N(C(=O)CN1CCN(C(=O)C2COc3ccccc3O2)CC1)C(C)C (stereo not given) | inconclusive [inhibitor, single point] |
| COc1cc2c(cc1OC)C1(CCCC1)CNC2c1cccc([N+](=O)[O-])c1 (stereo not given) | inconclusive [inhibitor, single point] |
| C/C(=N\NC(=O)c1ccc(-c2ccccc2)cc1)c1cccc(N)c1 | inactive |
| N#Cc1c(Cl)nsc1NCCN1CCOCC1 | inconclusive [inhibitor, single point] |
| CN1C[C@H](C(=O)N[C@]2(C)O[C@@]3(O)[C@@H]4CCCN4C(=O)[C@H](Cc4ccccc4)N3C2=O)CC2c3cccc4[nH]cc(c34)C[C@H]21 (stereo not given in full) | active: 2.08 µM and active: 1.85 µM |
| Cc1cccc(N(Cc2ccccc2)C(=O)CN2C(=O)NC3(CCCCC3C)C2=O)c1 (stereo not given) | inconclusive [inhibitor, single point] |
| COc1ccc(NC(=O)C(=O)NCC2CCCN2S(=O)(=O)c2ccc(C)cc2)cc1 (stereo not given) | inconclusive [inhibitor, full curve, poor fit] |
| COc1ccc(CNC(=O)/C=C/c2ccc3[nH]cc(CCN(C)C)c3c2)cc1 | inconclusive [inhibitor, single point] |
| O=c1c2ccccc2[nH]c(=S)n1CCc1ccccc1 | inactive |
| CCn1ncc([C@@H]2C[C@H]3CN(Cc4cccc(Cl)c4)C(=O)[C@]34CCCN24)c1C | inconclusive [inhibitor, partial curve] |
| O=C(COc1ccccc1)Nc1ncc2c(n1)CCCC2=O | inactive |
| Cc1ccc(N(CC(=O)NCc2ccc(F)cc2)C(=O)c2snc(C(N)=O)c2N)cc1C | inconclusive [inhibitor, partial curve] |
| N#Cc1c(N)nc(Sc2ccc(Cl)cc2)c(C#N)c1-c1ccccc1Cl | inconclusive [inhibitor, single point] |
| O=C(Nc1ccc(N2CCN(C(=O)c3ccc(Cl)cc3)CC2)cc1)c1ccc(Br)o1 | inconclusive [inhibitor, single point] |
| Cc1cc(Br)ccc1NC(=O)CN1C(=O)C2CC=CCC2C1=O (stereo not given) | inconclusive [inhibitor, single point] |
| CCc1[nH]c(=O)c(C#N)c2c1CSC(C)(C)C2 | inactive |
| CCC1CCCCN1C(=O)Cn1c(=O)n(CCCC(=O)NCc2ccco2)c(=O)c2sccc21 (stereo not given) | inactive |
